# Results from PubChem BioAssay AID1458 (National Center for Advancing Translational Sciences (NCATS), 2008).
# Screen size: about 210,000 compounds; about 5,900 (2.8%) were called active. Inconclusive results, whose numbers are uncertain, are shown with a selection of clear calls. Calls follow the shape of the dose curve; as a rule, active = well fitted activation curve with a large enough effect; inconclusive = small, poorly fitted or top-dose-only effect; inactive = no such curve, though single readings can be large or run the other way. Potencies beside an inconclusive call are fits to weak or partial responses and may not hold up.
# Experiment: qHTS Assay for Enhancers of SMN2 Splice Variant Expression; also: nearly all actives have a fitted effect of over 55% in size; as to activity change, positive = activation: % of control where 0% means no effect
# Details: HEK293 SMN2-luciferase splicing reporter, luminescence, 30-36 h; activity change, positive = activation: at 46.1 µM (top of the series)
# Method in brief: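 HEK293 cells carry an SMN2 minigene-luciferase reporter in which exon 7 inclusion puts luciferase in frame. Cells were seeded at 2000 cells/well, attached for 10-12 hours, then exposed to compounds for 30-36 hours at 37C before ONE-Glo luminescence.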
# Potency is read from the fitted curve at half-maximal effect; tags tell the direction and shape of the fitted curve.
SMILES,Potency,"activity change, positive = activation"
CC(C)(C)c1ccc(C(=O)N2CCC(C(=O)NCc3ccncc3)CC2)cc1,"inconclusive: 11.2 µM [activator, partial curve]",
COc1ccc(N=C/C=C2\C=C(c3ccccc3)OC(C)(C)O2)cc1,"inconclusive: 5.01 µM [activator, single point]",
Cc1cc(NC(=O)C(C)C)ncc1NC(=O)c1ccccn1,active: 12.6 µM,
N#Cc1c(SCC(=O)Nc2nccs2)nc2c(c1-c1ccco1)CCCC2,"inconclusive: 35.5 µM [activator, partial curve, poor fit]",
CN(C(=O)COC(=O)C1CCN(S(=O)(=O)c2cccs2)CC1)C1CCS(=O)(=O)C1 (stereo not drawn),,inactive: -8.38%
N/C(=N\OC(=O)COc1ccc2ccccc2c1Br)c1ccccn1,"inconclusive: 10 µM [activator, partial curve]",
C=CCSc1nnc(-c2ccc([N+](=O)[O-])cc2)o1,"inconclusive: 35.5 µM [activator, single point]",
Cc1nn(CC(=O)Nc2ccccc2)c(=O)c2ccccc12,"inconclusive: 6.31 µM [activator, partial curve]",
O=C(COc1ccc2c(c1)OCO2)Nc1ccccc1C(F)(F)F,"inconclusive: 17.8 µM [activator, partial curve]",
Cc1[nH]c(=O)[nH]c(=O)c1S(=O)(=O)N1CCCC(C(=O)NCCc2ccc(Cl)cc2)C1 (stereo not drawn),"inconclusive: 2.24 µM [activator, full curve, poor fit]",
CCN(Cc1ccccc1)Cc1c(O)ccc2c(=O)c(-c3ccccc3Cl)c(C(F)(F)F)oc12,,inactive: -8.2%
COc1cccc(OC)c1C(=O)Nc1nnc(C(C)C)s1,,inactive: -3.99%
COC(=O)C[C@H](NC(=O)[C@H](C)NC(=O)[C@@H](NC(=O)OCc1ccccc1)C(C)C)C(=O)CF,,inactive: 26%
COc1ccc(NC(=O)c2ccccc2NC(=O)CSc2ccc(Cl)cc2)cc1,"inconclusive: 3.55 µM [activator, full curve]",
COc1ccc(N(CC(=O)Nc2ccc3c(c2)OCO3)S(=O)(=O)c2ccccc2)c(OC)c1,,inactive: -6.03%
CCOC(=O)COc1ccccc1C1Nc2ccccc2C(=O)N1c1cccc(Cl)c1 (stereo not drawn),active: 20 µM,
CN(C(=O)COC(=O)c1cccc(NS(=O)(=O)c2ccc(F)c(F)c2)c1)C1CCS(=O)(=O)C1 (stereo not drawn),"inconclusive: 0.005 µM [activator, full curve, poor fit]",
Cc1ccc(/C=N/c2sc3c(c2C(N)=O)CCCC3)o1,"inconclusive: 35.5 µM [activator, single point]",
COc1cc(Br)c(S(=O)(=O)Nc2c(C)n(C)n(-c3ccccc3)c2=O)cc1OC,"inconclusive: 6.31 µM [activator, partial curve]",
COc1ccc(/C=C/c2ccncc2)cc1,"inconclusive: 35.5 µM [activator, single point]",
Clc1ccc(CSc2nnc3ccccn23)c(Cl)c1,"inconclusive: 0.398 µM [activator, single point]",
CCCC(=O)Nc1ccc(C(=O)NCc2ccccc2Cl)cc1,"inconclusive: 35.5 µM [activator, single point]",

SMILES,Potency,"activity change, positive = activation"
CCC(=O)Nc1nnc(CCc2ccccc2)s1,"inconclusive: 31.6 µM [activator, single point]",
O=C(N/N=C/c1cn(-c2ccccc2)nc1-c1ccccc1)c1ccco1,"inconclusive: 11.2 µM [activator, partial curve]",
O=C(Cn1nc(CNc2ccc(Cl)cc2)[n+]2c1CCCCC2)c1ccc(Cl)cc1,"inconclusive: 2.51 µM [activator, single point]",
COc1cc(SC)ccc1C(=O)Nc1ncc(C)s1,active: 1.26 µM,
CCCCN(C(=O)CSc1nnc(Nc2ccc(C)c(C)c2)s1)c1c(N)n(Cc2ccccc2)c(=O)[nH]c1=O,active: 22.4 µM,
Nc1c(C(=O)Nc2ccc(C(=O)O)cc2)sc2nc3c(cc12)CCCC3,"inconclusive: 12.6 µM [activator, single point]",
CCc1c(C#N)c(SCCC(=O)Nc2ccc(C)cc2)nc2c1C(=O)CC(C)(C)C2,"inconclusive: 2.82 µM [activator, full curve]",
COc1ccc(C(=O)c2oc3ccc(OC)cc3c2N)cc1,active: 14.1 µM,
COc1cccc(C2=CC(c3cccc(OC)c3OC)n3nnnc3N2)c1 (stereo not drawn),"inconclusive: 5.62 µM [activator, single point]",
Cc1noc(C)c1CSc1nc2ccccc2c(=O)n1-c1ccccc1,"inconclusive: 8.91 µM [activator, partial curve]",
CCc1ccccc1NC(=O)c1ccc2c(c1)N(Cc1cc(C)ccc1C)C(=O)c1ccccc1S2(=O)=O,,inactive: -1.76%
COc1ccc(OC)c(NC(=O)CSc2nc3ccccc3nc2N2CCCCC2)c1,"inconclusive: 35.5 µM [activator, single point]",
Cc1ccc(-c2ccc(CCC(=O)O)o2)cc1,"inconclusive: 11.2 µM [activator, partial curve]",
COc1ccc(CCNC(=O)C2CCCN(c3nc4c(C)cc(C)cc4s3)C2)cc1OC (stereo not drawn),active: 2.82 µM,
O=C(CSc1nnc(CNC(=O)c2cccs2)o1)Nc1ccc2c(c1)OCO2,,inactive: 28.7%
C/C(N)=C(/C#N)C(=O)COC(=O)CCS(=O)(=O)c1ccccc1,"inconclusive: 14.1 µM [activator, partial curve]",
COc1ccc(OC)c(NC2=NC3(CCCCC3)N=C(N)N2)c1,"inconclusive: 4.47 µM [activator, partial curve, poor fit]",
Cc1ccc(SCC(=O)Nc2ccc(N3CCN(c4ccccc4)CC3)c(F)c2)cc1,,inactive: -13.6%
CCOc1c2ccc(C(=O)NCc3ccc(C)cc3)cc2nn1CC,active: 12.6 µM,
N#C/C(C(=O)N1CCOCC1)=C1\Nc2ccccc2S1,"inconclusive: 35.5 µM [activator, partial curve, poor fit]",
COc1cc(/C=N/NC(=O)CN(Cc2ccccc2)S(=O)(=O)c2ccc3c(c2)OCCO3)ccc1O,"inconclusive: 3.98 µM [activator, single point]",
